Measurements published in PubChem BioAssay AID485360 (National Center for Advancing Translational Sciences (NCATS), 2010).
Hit rate of the full screen: of about 230,000 compounds, about 1,500 (0.65%) were called active. The shares of active, inactive and inconclusive entries below differ from those in the screen. The call rests on the fitted dose curve; in most records, active means well fitted inhibition curve with a large enough effect; inconclusive means small, poorly fitted or top-dose-only effect; inactive means no such curve, though single readings can be large or run the other way. Where the call is inconclusive, the potency comes from a doubtful curve fit.

target: Lethal(3)malignant brain tumor-like protein 1 (Homo sapiens) (UniProt Q9Y468); test: qHTS Assay for the Inhibitors of L3MBTL1; conditions: AlphaScreen L3MBTL1–H3K9me1 peptide binding; activity, negative = inhibition: at 57.1 µM (top of the series); further: nearly all actives have a fitted effect of over 60% in size
In short: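 AlphaScreen proximity signal between nickel-chelate acceptor and streptavidin donor beads (final 10 ug/mL) reports binding of 50 nM L3MBTL1 to 75 nM biotin-H3 K9me1 peptide; complex incubated with compounds 30 min at room temperature; cefsulodin titration as control.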
On the % scale 0 is the no-effect control and ±100 the full control effect; potency means the concentration at half of the fitted maximal effect; tags describe the fitted curve by direction and shape.

UniProt Q9Y468, sequence (Q9Y468 whole entry, looked up): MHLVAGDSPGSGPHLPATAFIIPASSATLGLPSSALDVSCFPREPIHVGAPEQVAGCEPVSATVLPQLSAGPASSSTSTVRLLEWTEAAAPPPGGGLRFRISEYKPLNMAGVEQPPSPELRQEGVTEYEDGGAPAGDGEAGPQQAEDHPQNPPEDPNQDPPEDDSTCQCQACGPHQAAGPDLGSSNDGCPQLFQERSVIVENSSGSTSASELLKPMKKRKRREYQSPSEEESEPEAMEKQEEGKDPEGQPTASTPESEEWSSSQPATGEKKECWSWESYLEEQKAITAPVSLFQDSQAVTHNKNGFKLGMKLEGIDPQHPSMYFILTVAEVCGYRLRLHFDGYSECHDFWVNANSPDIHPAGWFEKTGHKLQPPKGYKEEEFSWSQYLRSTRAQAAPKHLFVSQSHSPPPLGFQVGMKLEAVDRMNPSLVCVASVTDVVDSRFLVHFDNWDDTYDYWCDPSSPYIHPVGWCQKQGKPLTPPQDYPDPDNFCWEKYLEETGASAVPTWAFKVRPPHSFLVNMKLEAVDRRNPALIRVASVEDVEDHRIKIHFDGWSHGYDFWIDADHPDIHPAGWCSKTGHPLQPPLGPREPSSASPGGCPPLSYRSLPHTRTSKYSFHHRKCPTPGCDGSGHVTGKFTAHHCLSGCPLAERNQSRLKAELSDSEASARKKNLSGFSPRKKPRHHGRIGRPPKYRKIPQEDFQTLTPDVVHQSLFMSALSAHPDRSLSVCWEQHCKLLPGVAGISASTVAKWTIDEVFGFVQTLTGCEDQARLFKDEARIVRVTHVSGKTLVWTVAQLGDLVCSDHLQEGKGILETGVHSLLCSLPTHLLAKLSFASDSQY

SMILES | Potency | activity, negative = inhibition
CN(C)c1cc(N/N=C\c2ccccc2)nc(N(C)C)n1 | inconclusive: 25.1 µM [inhibitor, partial curve] | 
CC(=O)NCCNC(=O)c1ccc(CSc2ccc(Cl)cc2)cc1 | inconclusive: 0.355 µM [inhibitor, full curve, poor fit] | 
O=Cc1c(C(=O)O)n(CC(=O)O)c2ccccc12 | inconclusive: 39.8 µM [inhibitor, single point] | 
Cn1c(=O)n(C)c2cc([N+](=O)[O-])c(N3CCN(C(=O)c4ccccc4)CC3)cc21 |  | inactive: -2.95%
Cc1cccc(NC(=O)CN2C(=O)S/C(=C\c3cccn3-c3cccc(C(=O)O)c3)C2=O)c1 | inconclusive: 28.2 µM [inhibitor, single point] | 
CO/C([O-])=N/c1c[n+](-c2ccc(C)cc2)no1 |  | inactive: 6.68%
O=C1c2cccc3c([N+](=O)[O-])ccc(c23)C(=O)N1Cc1cccnc1 | inconclusive: 39.8 µM [inhibitor, single point] | 
CCCCOc1ccc(N2C(=O)CC(N(O)c3ccccc3)C2=O)cc1 (centres undefined) |  | inactive: -3.59%
O=C(/C=C/c1ccco1)NC(=S)Nc1ccccc1O |  | inactive: -28.5%
Cc1cccc(-n2c(SCc3cc(=O)n4ccsc4n3)nc3ccccc32)c1 | inconclusive: 31.6 µM [inhibitor, partial curve] | 
Cc1ccc(-c2nc3ccccc3[nH]2)cc1NC(=O)/C=C/c1ccco1 | inconclusive: 20 µM [inhibitor, single point] | 
O=C(Nc1nnc(C23CC4CC(CC(C4)C2)C3)s1)c1ccc(N2C(=O)CCC2=O)cc1 | inconclusive: 28.2 µM [inhibitor, single point] | 
CC(NC(=O)CN1CCN(S(=O)(=O)c2ccc(Br)cc2)CC1)c1ccccc1 (centres undefined) | inconclusive: 0.708 µM [inhibitor, single point] | 
C/C(Cl)=C/Cn1c(NCCN(C)C)nc2c1c(=O)n(C)c(=O)n2C | inconclusive: 5.62 µM [inhibitor, single point] | 
Cn1cccc1/C=C1\SC(=S)N(NC(=O)c2ccc(F)cc2)C1=O | inconclusive: 20 µM [inhibitor, partial curve] | 
Cc1ccccc1C(=O)OCC(=O)N(C)c1c(N)n(Cc2ccccc2)c(=O)[nH]c1=O |  | inactive: 12.2%
CNC(=O)NC(=O)CSc1ccc(S(=O)(=O)N2CCOCC2)cn1 |  | inactive: 0.56%
Cc1cc2c3c(c1C)C(=O)C(=O)N3C(C)(C)CC2C (centres undefined) | inconclusive: 25.1 µM [inhibitor, single point] | 
COc1cccc(C(=O)N(Cc2ccco2)Cc2cc3cccc(C)c3[nH]c2=O)c1 |  | inactive: 0.709%
CC(=O)c1ccc(NC(=S)NC(=O)/C=C/c2ccco2)cc1 | inconclusive: 31.6 µM [inhibitor, single point] | 
Cc1ccc(C)c(C(=O)OCC(=O)Nc2ccc(N3CCOCC3)cc2)c1 | inconclusive: 0.141 µM [inhibitor, full curve, poor fit] | 
Cc1cc(C)c(CN2CCN(C(=O)Cn3cnc4c(NCc5ccccc5)ncnc43)CC2)c(C)c1 |  | inactive: -1.52%
Cc1ccc(OCC(=O)NN=C2C3CC4CC(C3)CC2C4)cc1 |  | inactive: -0.0504%

SMILES | Potency | activity, negative = inhibition
O=C(CCNC(=O)Cn1ccc2ccccc2c1=O)NCCc1ccccc1Cl | inconclusive: 39.8 µM [inhibitor, single point] | 
Cc1cc(O)c(C=O)c2c1C(=O)Oc1c(CO)c(O)c3c(c1O2)C(O)OC3=O (centres undefined) | active: 2.82 µM | 
CN(Cc1ccccc1)C(=O)CN(c1ccc(F)cc1)S(=O)(=O)c1ccc2c(c1)OCCO2 | inconclusive: 8.91 µM [inhibitor, single point] | 
O=C(c1ccc(S(=O)(=O)N2CCC(c3nc4ccccc4s3)CC2)cc1)N1CCOCC1 |  | inactive: -1.08%
CN/C=C1\C(=O)C(C)(C)Oc2ccc3ccc(=O)oc3c21 |  | inactive: -12.4%
C=CCN1C(=O)C(O)(CC(=O)c2ccc(-n3cccc3)cc2)c2ccccc21 (centres undefined) | inconclusive: 5.62 µM [inhibitor, single point] | 
CN(Cc1ccccc1)Cc1c(F)cccc1F |  | inactive: -14.2%
Cc1ccccc1-n1c(O)c(/C=C/C=Nc2ccccc2)c(=O)[nH]c1=O |  | inactive: 0.656%
COc1ccc(C2C(C(C)=O)=C(C)N=c3s/c(=C\c4ccco4)c(=O)n32)c(OC)c1 (centres undefined) | inconclusive: 31.6 µM [inhibitor, single point] | 
COCCn1nnnc1C(c1ccccc1)N1CCN(C)CC1 (centres undefined) |  | inactive: -8.15%
COc1ccc(-c2cc(C(=O)N3CCN(S(=O)(=O)c4ccc(C)cc4)CC3)[nH]n2)cc1 | inconclusive: 0.794 µM [inhibitor, single point] | 
COc1ccc(CCN(Cc2cc3cc(C)cc(C)c3nc2Cl)C(=O)C2CC2)cc1 | inconclusive: 5.62 µM [inhibitor, single point] | 
COc1cccc(-c2nnc(NC(=O)CCS(=O)(=O)c3ccc(C)cc3)o2)c1 |  | inactive: 7.19%
CC1=NN(c2ccccc2)C(=O)C1C=Nc1ccc(N(C)C)cc1 (centres undefined) | inconclusive: 7.94 µM [inhibitor, full curve, poor fit] | 
Cc1c(NC(=O)Nc2ccc(Cl)cc2)c(=O)n(-c2ccccc2)n1C | inconclusive: 5.62 µM [inhibitor, single point] | 
O=C(COC(=O)c1cc(-c2ccco2)nc2ccccc12)NCc1ccc2c(c1)OCO2 | inconclusive: 7.08 µM [inhibitor, single point] | 
CS(=O)(=O)N(CC(N)=O)c1cccc(Br)c1 | inconclusive: 5.01 µM [inhibitor, single point] | 
COc1cccc(/C=N\NC(=O)C2=NNC(=O)C2C)c1O (centres undefined) | inconclusive: 28.2 µM [inhibitor, partial curve] | 
CCc1noc(C)c1C(=O)OCC(=O)NC(C)c1ccccc1 (centres undefined) | inconclusive: 0.708 µM [inhibitor, single point] | 
O=c1cc(OCc2ccccc2)cc[nH]1 | active: 28.2 µM | 
CC(C(=O)Nc1ccc2c(c1)OCCO2)N(C)CC(=O)Nc1ccccc1Br (centres undefined) |  | inactive: 5.72%
CC(=O)c1c(C)oc2ccc(NS(=O)(=O)c3ccc(O)c(C(=O)O)c3)cc12 | inconclusive: 35.5 µM [inhibitor, partial curve] | 
COc1ccc(NC(=O)CN2CCN(c3ccc(F)cc3)CC2)cc1Cl | inconclusive: 3.98 µM [inhibitor, single point] | 

SMILES | Potency | activity, negative = inhibition
O=C(N/N=C/c1ccccc1O)c1cc(=O)[nH]c2ccccc12 | inconclusive: 39.8 µM [inhibitor, single point] | 
CCNC(=O)CC1SC(=Nc2cccc3ccccc23)N(C)C1=O (centres undefined) |  | inactive: 1.64%
Cc1cc2c(cc1S(=O)(=O)N1CCN(c3ccccc3)CC1)OCCN2C | inconclusive: 25.1 µM [inhibitor, single point] | 
O=C(COC(=O)c1ccc([N+](=O)[O-])s1)NC(c1ccccc1)c1ccccc1 | inconclusive: 22.4 µM [inhibitor, single point] | 
COc1ccc([C@@H]2CC=C(C(=O)O)[C@H](c3ccccc3F)N2S(=O)(=O)c2ccccc2C)cc1 | inconclusive: 5.62 µM [inhibitor, single point] | 
CN(C)Cc1ccc(F)cc1Sc1ccc(Cl)cc1Cl | inconclusive: 31.6 µM [inhibitor, single point] | 
CN(C(=O)c1ccc(N2CCOCC2)c([N+](=O)[O-])c1)C1CCCCC1 |  | inactive: -2.99%
O=C(NCCO)Nc1ccc2nsnc2c1 | inconclusive: 0.199 µM [inhibitor, full curve, poor fit] | 
CN(CCC#N)C(=O)COC(=O)c1ccc2c(=O)n3c(nc2c1)CCC3 | inconclusive: 0.708 µM [inhibitor, partial curve, poor fit] | 
CCN(c1ccccc1)S(=O)(=O)c1ccc(Cl)c(NC(=O)COC(=O)c2ccc(O)cc2)c1 |  | inactive: -12.3%
O=C(CCc1ccc(S(=O)(=O)N2CCOCC2)cc1)N/N=C/c1ccc(O)c(O)c1O | active: 14.1 µM | 
O=C(COC(=O)c1ccc2c(c1)C(=O)N(Cc1ccncc1)C2=O)Nc1ccccc1[N+](=O)[O-] | inconclusive: 25.1 µM [inhibitor, partial curve] | 
COc1ccccc1N1CCN(CC(=O)N2N=CCC2c2ccccc2)CC1 (centres undefined) | inconclusive: 0.708 µM [inhibitor, single point] | 
Cn1c(=N)c(S(=O)(=O)c2ccccc2)cc2c(=O)n3ccccc3nc21 |  | inactive: -2.43%
Cc1ccc(C(C)NC(=O)c2ccc3c(c2)OCCO3)cc1C (centres undefined) |  | inactive: -2.28%
CC(=O)c1cccc(NC(=O)CN2C(=O)C(=O)N(Cc3ccco3)C2=O)c1 | inconclusive: 31.6 µM [inhibitor, single point] | 
CCCN(CCC)c1ccc(CC(=O)NC(C)Cc2ccccc2)cc1 (centres undefined) | inconclusive: 15.8 µM [inhibitor, partial curve] | 
O=C(O)CN1C(=O)C2C3CC(C2C1=O)C1C(c2ccccc2)c2sc(=O)[nH]c2SC31 (centres undefined) | inconclusive: 39.8 µM [inhibitor, single point] | 
O=C(COC(=O)c1ccccc1Nc1cccc(C(F)(F)F)c1)NCc1ccco1 | inconclusive: 39.8 µM [inhibitor, single point] | 
O=C(CN1CCN(Cc2ccccc2)CC1)N/N=C/c1cccs1 | inconclusive: 8.91 µM [inhibitor, single point] | 
O=C(CN1C(=O)C2CC=C(Cl)CC2C1=O)Nc1ccc(C(=O)O)cc1 (centres undefined) | inconclusive: 35.5 µM [inhibitor, single point] | 
FC(F)(F)c1cnc(-c2cnc(-c3ccccn3)nc2)c(Cl)c1 |  | inactive: 10.2%
Cc1cc(C)nc(/N=C(\N)Nc2ccc3c(c2)OCCO3)n1 | inconclusive: 39.8 µM [inhibitor, single point] | 
